Laboratory results taken from PubChem BioAssay AID2675 (National Center for Advancing Translational Sciences (NCATS), 2010).
Out of some 280,000 compounds screened, about 100 (0.036%) were called active. Inconclusive means that the source gave no clear call. Such entries were picked first, then a sample of the others. The call rests on the fitted dose curve; in most records, active means well fitted inhibition curve with a large enough effect in the signal ratio, with a control signal flat (not every such curve was filed as active); inconclusive means small, poorly fitted or top-dose-only effect, or effect the other way, or a change in a side signal; inactive means no such curve, though single readings can be large or run the other way; the % refers to the signal ratio. A potency beside an inconclusive call is a rough fit, not a confirmed value. A note “side channel” means that the fit belongs to a control or component signal, not to the main read-out.

Each molecule was assayed against Muscleblind-like protein 1 (Homo sapiens) (UniProt Q9NR56) (assay: qHTS Assay for Inhibitors of MBNL1-poly(CUG) RNA binding). Settings: TR-FRET MBNL1-His/biotin-(CUG)12 binding, 665/545 ratio; activity change, negative = inhibition: at 57.5 µM (top of the series).
Outline: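 Ratiometric TR-FRET (665 over 545 nm, excitation 340 nm) tracks disruption of MBNL1-His/biotin-(CUG)12 complex after 60 min at room temperature, with compounds at 92 nM to 58 uM final.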
On the % scale 0 is the no-effect control and ±100 the full control effect; potency means the concentration at half of the fitted maximal effect; tags describe the fitted curve by direction and shape or compound fluorescence and quenching.

UniProt Q9NR56, sequence (Q9NR56 whole entry, looked up): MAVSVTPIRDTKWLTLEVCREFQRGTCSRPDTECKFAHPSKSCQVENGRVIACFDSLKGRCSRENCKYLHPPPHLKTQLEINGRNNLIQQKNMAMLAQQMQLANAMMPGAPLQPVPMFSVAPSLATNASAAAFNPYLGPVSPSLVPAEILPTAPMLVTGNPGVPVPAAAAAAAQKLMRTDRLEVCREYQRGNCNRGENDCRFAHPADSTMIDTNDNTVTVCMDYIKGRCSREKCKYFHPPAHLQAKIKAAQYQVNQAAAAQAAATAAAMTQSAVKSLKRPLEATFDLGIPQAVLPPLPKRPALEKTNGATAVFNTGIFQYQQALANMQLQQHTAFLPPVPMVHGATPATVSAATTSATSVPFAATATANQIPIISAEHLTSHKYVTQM

| SMILES | Potency | activity change, negative = inhibition |
| --- | --- | --- |
| COC(=O)c1ccc(/C=C2/SC(=S)N(CCCC(=O)Nc3ccccn3)C2=O)cc1 | inconclusive: 4.47 µM [quencher, side channel, full curve, poor fit] | – |
| O=C(CN1CCCC1)N1c2ccccc2Sc2ccc(C(F)(F)F)cc21 | inactive | – |
| CN(Cc1cn(C)nc1-c1ccc(Oc2ccccc2)cc1)C1CCOC1 (stereo unspecified) | inactive | – |
| O=C(CC(c1ccccc1)c1ccccc1)NCC(O)c1ccc([N+](=O)[O-])cc1 (stereo unspecified) | inconclusive: 15.8 µM [quencher, side channel, partial curve] | – |
| COc1ccc(CN(CC(=O)NCc2ccco2)C(=O)CNS(=O)(=O)c2ccc(C)cc2)cc1 | inactive | – |
| Cc1cc(=O)c(C(=O)O)nn1-c1ccccc1[N+](=O)[O-] | inconclusive: 14.1 µM [quencher, side channel, partial curve] | – |
| O=C1/C(=C/c2ccco2)Oc2c1ccc(O)c2CN1CCCCC1 | inconclusive: 28.2 µM [quencher, side channel, partial curve] | – |
| CCC(C)NC(=O)c1ccc(NS(=O)(=O)c2ccc3[nH]c(=O)[nH]c3c2)cc1 (stereo unspecified) | inconclusive: 22.4 µM [quencher, side channel, partial curve] | – |
| CNC(=O)c1cc(Nc2nnc(-c3ccc(C)c(S(N)(=O)=O)c3)c3ccccc23)ccc1OC | inconclusive: 12.6 µM [quencher, side channel, partial curve] | – |
| COc1cccc(C2CC(c3cccc(C)c3)n3ncnc3N2)c1 (stereo unspecified) | inconclusive: 3.55 µM [quencher, side channel, single point] | – |
| CC[N+]1(CC)CC2=Cc3c(ccc4ccccc34)CC2C1 (stereo unspecified) | inconclusive: 10 µM [quencher, side channel, partial curve] | – |
| CN1CCN(S(=O)(=O)c2cccc3nsnc23)CC1 | inconclusive: 15.8 µM [quencher, side channel, partial curve] | – |
| COc1cc2c(cc1OC)C(C)N(C(=O)c1sc(-c3cnccn3)nc1C)CC2 (stereo unspecified) | inconclusive: 17.8 µM [quencher, side channel, partial curve] | – |
| O=C(O)c1ccc(NCCc2ccc(Cl)cc2)c([N+](=O)[O-])c1 | inconclusive: 28.2 µM [quencher, side channel, partial curve] | – |
| Nc1ncnc(Oc2ccccc2F)c1[N+](=O)[O-] | inconclusive: 8.91 µM [quencher, side channel, partial curve] | – |
| COc1ccc(O)c(/C=N/NC(=S)Nc2cccnc2)c1 | inactive | – |
| Cc1cccc(-n2ccc(=O)c(C(=O)Nc3ccc(S(=O)(=O)Nc4nccs4)cc3)n2)c1 | inconclusive: 15.8 µM [quencher, side channel, partial curve] | – |
| COC(=O)c1ccc(COc2ccc(C)cc2[N+](=O)[O-])o1 | inconclusive: 28.2 µM [quencher, side channel, partial curve] | – |
| Cc1cc(NC(=O)c2ccc(S(=O)(=O)N3CCCC3)cc2)nc2c1c(=O)oc1ccccc12 | inconclusive: 0.126 µM [fluorescent, side channel, full curve, poor fit] | – |
| CC(C)NC(=O)CN1C(=O)c2cccc3cccc1c23 | inconclusive: 28.2 µM [quencher, side channel, single point] | – |
| CC(C)CNS(=O)(=O)c1ccc(CCC(=O)NCc2ccncc2)cc1 | inconclusive: 20 µM [inhibitor, single point] | – |

| SMILES | Potency | activity change, negative = inhibition |
| --- | --- | --- |
| O=C(Nc1ccccc1)Nc1ccc(C(=O)N2CCCC2)cc1 | inactive | – |
| COc1ccc(Nc2cccccc2=O)cc1 | inconclusive: 8.91 µM [quencher, side channel, partial curve] | – |
| Cc1ccn2c(C(=O)N/N=C\c3cccs3)c(C)nc2c1 | inconclusive: 28.2 µM [quencher, side channel, partial curve] | – |
| Cc1cc(NC(=O)CSc2nnc(C3CC3)n2N)c([N+](=O)[O-])cc1C | inconclusive: 28.2 µM [quencher, side channel, partial curve] | – |
| COc1ccc(CN(C)C(C)C(=O)Nc2ccc([N+](=O)[O-])cc2Cl)cc1OC (stereo unspecified) | inconclusive: 25.1 µM [quencher, side channel, single point] | – |
| CN(C)c1nc(OCCNC(=O)COc2ccccc2Cl)nc(N(C)C)n1 | – | inconclusive: -7.14% [phenotype inactive] |
| COCCCN1C(=O)c2ccc(C(=O)N3CCN(c4ccccc4OC)CC3)cc2C1=O | inconclusive: 14.1 µM [quencher, side channel, single point] | – |
| O=C1Nc2ccccc2/C1=N/N=C/c1cccc(O)c1 | inconclusive: 15.8 µM [quencher, side channel, partial curve] | – |
| CCNC(=O)Nn1c(-c2ccccc2)nc2ccccc2c1=O | inconclusive: 11.2 µM [quencher, side channel, full curve] | – |
| O=c1nc(N/N=C/C=C/c2ccccc2)cn[nH]1 | inconclusive: 1.41 µM [quencher, side channel, full curve, poor fit] | – |
| O=C(CNC(=O)c1ccccc1Cl)N/N=C/c1ccc2c(c1)OCO2 | inconclusive: 25.1 µM [quencher, side channel, single point] | – |
| O=[N+]([O-])c1ccc(N2CCN(C(=S)Nc3ccc(F)cc3)CC2)cc1 | inconclusive: 3.55 µM [quencher, side channel, full curve] | – |
| Cn1c(=O)n(C)c2cc([N+](=O)[O-])c(N3CCN(C(=O)c4cccc(F)c4)CC3)cc21 | inconclusive: 25.1 µM [quencher, side channel, partial curve] | – |
| CC(C)Cc1cc(C(=O)Nc2c(F)cc(F)cc2Br)no1 | inconclusive: 0.282 µM [quencher, side channel, full curve, poor fit] | – |
| N#Cc1c2ccc(OCC(=O)NCc3ccco3)cc2n2ccccc12 | inactive | – |
| C=CCNC(=O)CSc1nc2sccc2c(=O)n1-c1ccccc1 | inconclusive: 39.8 µM [fluorescent, side channel, single point] | – |
| O=C(N/N=C/c1c(O)ccc2ccccc12)c1cccnc1 | inconclusive: 15.8 µM [quencher, side channel, partial curve] | – |
| O=C1/C(=C/c2ccccc2Cl)SC(=S)N1CCC(=O)N1CCCCC1CCO (stereo unspecified) | inconclusive: 25.1 µM [quencher, side channel, partial curve] | – |
| CC1(C)CC(=O)C(C=Nc2ccccc2C(=O)O)=C(O)C1 | inactive | – |
| Cc1c(/C=N/Nc2ccc(C(=O)O)cc2)c2ccccc2n1C | inconclusive: 0.631 µM [quencher, side channel, full curve] | – |
| O=C1CSC(c2cn(-c3ccccc3)nc2-c2cccs2)N1CC1CCCO1 (stereo unspecified) | inconclusive: 39.8 µM [quencher, side channel, single point] | – |

| SMILES | Potency | activity change, negative = inhibition |
| --- | --- | --- |
| Cn1ccnc1/C(=N\NC(=O)c1ccccc1)c1cccc([N+](=O)[O-])c1 | inconclusive: 12.6 µM [quencher, partial curve] | – |
| COc1ccc(C(=O)O/N=C(\N)c2ccccn2)cc1[N+](=O)[O-] | inconclusive: 12.6 µM [quencher, partial curve] | – |
| COc1cccc(OCC(O)CN2CCC(CN3C(=O)c4cccc5cccc(c45)C3=O)CC2)c1 (stereo unspecified) | inconclusive: 12.6 µM [quencher, side channel, partial curve] | – |
| COc1cc(NC(=O)CSc2nnc(-c3ccncc3)o2)cc(OC)c1OC | inactive | – |
| COc1ccc(NC(=O)CSc2ccccn2)c([N+](=O)[O-])c1 | inconclusive: 14.1 µM [quencher, side channel, partial curve] | – |
| NC(=O)COc1ccc2oc(=O)cc(-c3cc4ccccc4o3)c2c1 | inconclusive: 39.8 µM [quencher, single point] | – |
| CCc1ccc(C(=O)C[n+]2cccc3cc(OC)ccc32)cc1 | inconclusive: 15.8 µM [quencher, side channel, partial curve] | – |
| CCNc1oc(-c2ccccc2F)nc1S(=O)(=O)c1ccccc1 | inactive | – |
| CCCCN(C)S(=O)(=O)c1ccc(C(=O)N=c2sc3cc(NC(C)=O)ccc3n2C)cc1 | inconclusive: 39.8 µM [fluorescent, side channel, single point] | – |
| CCc1nc(SCC(=O)Nc2nc3c(s2)CCCC3)c2ccccc2n1 | inactive | – |
| O=c1[nH]c(-[n+]2ccccc2)c(/C=N/NC([S-])=Nc2ccccc2)s1 | inconclusive: 15.8 µM [quencher, side channel, partial curve] | – |
| O=C(N/N=C/c1cc(Br)c(O)c(Br)c1O)c1ccc2c(c1)OCCO2 | inactive | – |
| CCCCS(=O)(=O)/C=C\C1C2C=CC(C2)C1S(=O)(=O)CCCC (stereo unspecified) | inactive | – |
| COc1ccc2cc(C(N)=O)/c(=N/NC(=O)c3ccco3)oc2c1 | inconclusive: 10 µM [quencher, side channel, partial curve] | – |
| CN(C(=O)CSC1=Nc2ccccc2C2=NC(c3ccccc3)C(=O)N12)C1CCCCC1 (stereo unspecified) | inactive | – |
| CC(C)CNC(=O)c1cccc(NC(=O)C(C)Oc2ccccc2)c1 (stereo unspecified) | inactive | – |
| COc1cc(/C=N/n2nnnc2Nc2ccccc2)cc(OC)c1OC | inconclusive: 2.51 µM [quencher, side channel, full curve] | – |
| COc1ccc(-c2c3c(nc4sc5c(=O)[nH]c(C)nc5c24)CCC3)cc1 | inactive | – |
| CC1(C)C(=O)OC(C(=O)c2ccccc2)C(C)(C)C1=O (stereo unspecified) | inactive | – |
